Target: GLP-2 receptor
Test: cell-based or functional assay

B1: GLP-2 mutant fusion protein SEQ ID NO:18 (Fc fusion)
chain: HGDGSFSDEMNTILDNLAARDFINWLIQTKITDGGGGSGGGGSGPEGAPGPS[human IgG4 Fc with S228P N297A (EU numbers) omitted]
EC50 (nM), luciferase reporter gene assay in GLP-2R/Luc-CHO cells: 10.7 nM

B2: GLP-2 mutant fusion protein SEQ ID NO:13 (Fc fusion)
chain: HGDGSFSDEMNTILDNLAARDFINWLIQTKITDGGGGSGGGGSGPQ[human IgG1 Fc with changes omitted]
EC50 (nM), luciferase reporter gene assay in GLP-2R/Luc-CHO cells: 19.6 nM

B3: GLP-2 mutant fusion protein SEQ ID NO:20 (Fc fusion)
chain: HGDGSFSDEMNTILDNLAARDFINWLIQTKITDGGGGSGGGGSGPSGAPGPPGPSGAPGPPGPSGAPGPP[human IgG4 Fc with S228P N297A (EU numbers) omitted]
EC50 (nM), luciferase reporter gene assay in GLP-2R/Luc-CHO cells: 13.1 nM

B4: GLP-2 mutant fusion protein SEQ ID NO:12 (Fc fusion)
chain: HGDGSFSDEMNTILDNLAARDFINWLIQTKITDGGGGSGPA[human IgG4 Fc with S228P N297A (EU numbers) omitted]
EC50 (nM), luciferase reporter gene assay in GLP-2R/Luc-CHO cells: 25.8 nM

B5: GLP-2 mutant fusion protein SEQ ID NO:15 (Fc fusion)
chain: HGDGSFSDEMNTILDNLAARDFINWLIQTKITDGGGGSGGGGSGGGGSGGGGSGGGGSGPD[human IgG4 Fc with S228P N297A (EU numbers) omitted]
EC50 (nM), luciferase reporter gene assay in GLP-2R/Luc-CHO cells: 24.1 nM

B6: GLP-2 mutant fusion protein SEQ ID NO:17 (Fc fusion)
chain: HGDGSFSDEMNTILDNLAARDFINWLIQTKITDGGGGSGGGGSGPPGPA[human IgG1 Fc with changes omitted]
EC50 (nM), luciferase reporter gene assay in GLP-2R/Luc-CHO cells: 6.4 nM

B7: GLP-2 mutant fusion protein SEQ ID NO:11 (Fc fusion)
chain: HGDGSFSDEMNTILDNLAARDFINWLIQTKITDGGGGSGGGGSGGGGS[human IgG4 Fc with S228P N297A (EU numbers) omitted]
EC50 (nM), luciferase reporter gene assay in GLP-2R/Luc-CHO cells: 92.6 nM

B8: GLP-2 mutant fusion protein SEQ ID NO:25 (Fc fusion)
chain: HGDGSFSDEMNTILDNLAARDFINWLIQTKGGGGSGGGGS[human IgG4 Fc with S228P N297A (EU numbers) omitted]
EC50 (nM), luciferase reporter gene assay in GLP-2R/Luc-CHO cells: 83.4 nM

B9: GLP-2 mutant fusion protein SEQ ID NO:10 (Fc fusion)
chain: HGDGSFSDEMNTILDNLAARDFINWLIQTKITDGGGGS[human IgG4 Fc with S228P N297A (EU numbers) omitted]
EC50 (nM), luciferase reporter gene assay in GLP-2R/Luc-CHO cells: 80.2 nM

B10: GLP-2 mutant fusion protein SEQ ID NO:9 (Fc fusion)
chain: HGDGSFSDEMNTILDNLAARDFINWLIQTKITD[human IgG4 Fc with S228P N297A (EU numbers) omitted]
EC50 (nM), luciferase reporter gene assay in GLP-2R/Luc-CHO cells: 85.8 nM

B11: GLP-2 mutant fusion protein SEQ ID NO:24 (Fc fusion)
chain: HGDGSFSDEMNTILDNLAARDFINWLIGGGGS[human IgG4 Fc with S228P N297A (EU numbers) omitted]
EC50 (nM), luciferase reporter gene assay in GLP-2R/Luc-CHO cells: 95.8 nM

B12: GLP-2 mutant fusion protein SEQ ID NO:19 (Fc fusion)
chain: HGDGSFSDEMNTILDNLAARDFINWLIQTKITDGGGGSGGGGSGPSGAPGPPGPEGPA[human IgG4 Fc with S228P N297A (EU numbers) omitted]
EC50 (nM), luciferase reporter gene assay in GLP-2R/Luc-CHO cells: 11 nM

B13: GLP-2 mutant fusion protein SEQ ID NO:16 (Fc fusion)
chain: HGDGSFSDEMNTILDNLAARDFINWLIQTKITDGGGGSGGGGSGPPGPA[human IgG4 Fc with S228P N297A (EU numbers) omitted]
EC50 (nM), luciferase reporter gene assay in GLP-2R/Luc-CHO cells: 7.8 nM

B14: GLP-2 mutant fusion protein SEQ ID NO:14 (Fc fusion)
chain: HGDGSFSDEMNTILDNLAARDFINWLIQTKITDGGGGSGGGGSGGGGSGPA[human IgG4 Fc with S228P N297A (EU numbers) omitted]
EC50 (nM), luciferase reporter gene assay in GLP-2R/Luc-CHO cells: 21.9 nM

From patent US20190241639A1 (ZHEJIANG DOER BIOLOGICS, published 2019)
